# Read counts are not given, so values of variants with three or more changes are uncertain.
# B1: CPEB3 Ribozyme (parent)
# chain: UAACAGGGGGCCACAGCAGAAGCGUUCACGUCGCAGCCCCUGUCAGAUUCUGGUGAAUCUGCGAAUUCUGCUGUAUAUCUC
# Variants of: B1
# Experiment: self-cleavage, relative activity (ratio to wild type); higher = more cleavage; in vitro, sequencing
# Outline: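 For each CPEB3 ribozyme variant, relative activity is its cleaved/total read fraction divided by the unmutated ribozyme's. Barcoded error-prone PCR libraries were transcribed by T7 RNA polymerase (5 hours, 37°C) and held in DNase I for 15 min before an EDTA stop, with cleavage occurring throughout. Template-switching reverse transcription and Illumina sequencing were used to read the RNAs. A 5-read minimum applied, and results are the mean of three batches.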
row,Variant,self-cleavage
1,UAGCAGGGGGCCACAGCAGGAGCGUUCACGUCGCAGCGCCUGUCAGAUUCUGGGGAAUCUGCGAAUUCUGCUGUAUAUCUC [A3G A20G C38G U54G],0.52
2,UAGCAGGGGGCCACAGCAGGAGCGUUCACGUCGCAGCUCCCGUCAGAUUCUGGUGAAUCUGCGAAUUCUGCUGUAUAUCUC [A3G A20G C38U U41C],0.54
3,UAGCAGGGGGCCACAGCAGGAGCGUUCACGUCGCAGCCCAUGUCAGAUUCUGGUGAAUCUGCGAAUUCUGCUGUAUAUCUC [A3G A20G C40A],0.21
4,UAGCAGGGGGCCACAGCAGGAGCGUUCACGUCGCAUCCCUUGUCAGAUUCUGGCGAACCUGCGAAUUCUGCUGUAUAUCUC [A3G A20G G36U C40U U54C U58C],0.07
5,UAGCAGGGGGCCACAGCAGGAGCGCUCACGUCGCAGCCCCUGCCAGAUUCUGGUGAAUCUGCGAAUCCUGCUGUAUAUCUC [A3G A20G U25C U43C U67C],0.23
6,UAGCAGGGGGCCACAGCAGGAGCGCUCACGUCGCAGCCCCUGUCAGAUUCUGGUGAAUCUGCGAAUUCAGUUGCAUAUCUC [A3G A20G U25C U69A C71U U74C],0.12
7,UAGCAGGGGGCCACAGCAGGAGCGGUCACGUCGCAGCCCCUGUCGGAUUCUGGUGAAUCUGCGAAUUCUACUGUAUACCUC [A3G A20G U25G A45G G70A U78C],0.09
8,UAGCAGGGGGCCACAGCAGGAGCGUCCACGUGGCAGCCCCUGUCAGAUUCUAGUGAACCUGCGAAUUCUGCUGUAUAUCUC [A3G A20G U26C C32G G52A U58C],0.37
9,UAGCAGGGGGCCACAGCAGGAGCGUCCACGUCGCAGCCCCUGUCAGAUUCCGGUGAAUCUGCGAAUUCUGCUGUAUAUCUC [A3G A20G U26C U51C],0.64
10,UAGCAGGGGGCCACAGCAGGAGCGUUCACGUCGCAGCCCCAGUCAGAUUCUGGCGAAUCAGCGAAUUCCGCCGUAUAUCUC [A3G A20G U41A U54C U60A U69C U72C],0
11,UAGCAGGGGGCCACAGCAGGAGCGUUCACGUCGCAGCCCCAGUCAGAUUCUGGUGAAUCUGCGAAUUCCGCUGUAUACCUC [A3G A20G U41A U69C U78C],0.07
12,UAGCAGGGGGCCACAGCAGGAGCGUUCACGUCGCAGCCCCGGUCAGAUUCUGGUGAAUCUGCGAAUUCUGCUGUAUAUCUC [A3G A20G U41G],0.44
13,UAGCAGGGGGCCACAGCAGGAGCGUUCACGUCGCAGCCCCUGCCAGAUUCUAGUGAAUCUGCAAAUUCUGCAGUAUAUCUC [A3G A20G U43C G52A G63A U72A],0.12
14,UAGCAGGGGGCCACAGCAGGAGCGUUCACGUCGCAGCCCCUGUCAGAAUCUGGUGAAUCAGCGAACUCUGCUGUAUAUCAC [A3G A20G U48A U60A U66C U80A],0.16
15,UAGCAGGGGGCCACAGCAGGAGCGUUCACGUCGCAGCCCCUGUCAGACUCCGGUGAAUCUGCGAAUUCUGCUGUAUAUCUC [A3G A20G U48C U51C],0.62
16,UAGCAGGGGGCCACAGCAGGAGCGUUCACGUCGCAGCCCCUGUCAGAUGCUGGUGAAUCUGCGAAUUCUGCUGUAUAUCUC [A3G A20G U49G],0.36
17,UAGCAGGGGGCCACAGCAGGAGCGUUCACGUCGCAGCCCCUGUCAGAUUCCGGCGAAUCUGCGAAUUCUGCUGUAUAUCCC [A3G A20G U51C U54C U80C],0.95

row,Variant,self-cleavage
1,UAGCAGGGGGCCACAGCAGGAGCGUUCACGUCGCAGCCCCUGUCAGAUUCUGGUGAACCUGCGAAUUCUGCUAUAUAUCUC [A3G A20G U58C G73A],0.7
2,UAGCAGGGGGCCACAGCAGGAGCGUUCACGUCGCAGCCCCUGUCAGAUUCUGGUGAAUCUGCGAAGUCUGCUGUGUAUCCC [A3G A20G U66G A75G U80C],0.25
3,UAGCAGGGGGCCACAGCAGGAGCGUUCACGUCGCAGCCCCUGUCAGAUUCUGGUGAAUCUGCGAAUUCUGCUGUAUACCUC [A3G A20G U78C],0.76
4,UAGCAGGGGGCCACAGCAGUCGCGUUCACGUCGCUGCCCCUGUCAGAUCCUGGUGAUUCUGCGAAUACUGCUGUAUAUCUC [A3G A20U A21C A35U U49C A57U U67A],0.17
5,UAGCAGGGGGCCACAGCAGUAGCGUUCACGUCGCUGCCCCUGUCAGAUUCUGGUGAACCUGCGAAUUCUGCUGUAUAUCUC [A3G A20U A35U U58C],0.04
6,UAGCAGGGGGCCACAGCAGUAGCGUUCACGUCGCAGCCCCUGUCAGCUUCUGGUGGAUCUGCGCAGUCUGCUGUAUAUCUC [A3G A20U A47C A56G A64C U66G],0.15
7,UAGCAGGGGGCCACAGCAGUAGCGUUCACGUCGCAGCCCCUGUCAAAUUCUGGUGAAUCUGCGAAUUCUGCUGUAUAUCUC [A3G A20U G46A],0.35
8,UAGCAGGGGGCCACAGCAGUAGCGAUCACGUCGUAGUCCCUGUCAGAUUCUGGUGAAUCUGCGAAUUCUGCUGUAUAUCUC [A3G A20U U25A C34U C37U],0.09
9,UAGCAGGGGGCCACAGCAGUAGCGUUCACGUCGCAGCCCCUGUCAGACUCUGCUGAGUCUGCGAAUUCUGCUGUAUAUCUC [A3G A20U U48C G53C A57G],0.34
10,UAGCAGGGGGCCACAGCAGUAGCGUUCACGUCGCAGCCCCUGUCAGAUCCUGGUGAAUCUGCGAAUUCUGCCGUACAUCUC [A3G A20U U49C U72C U76C],0.1
11,UAGCAGGGGGCCACAGCAGUAGCGUUCACGUCGCAGCCCCUGUCAGAUUCCAGUGAAUCUGCGAAUUCUGCUGUAUAUCUC [A3G A20U U51C G52A],0.64
12,UAGCAGGGGGCCACAGCAGUAGCGUUCACGUCGCAGCCCCUGUCAGAUUCUGGCGAAUCUGCGAAUUCUGCUGUAUAUCUC [A3G A20U U54C],0.12
13,UAGCAGGGGGCCACAGCAGAGGCGUUCGCGUCGCAGCCCCUGUCUGAUUCAGGUGAAUCUGCGAAUUCUGCUGUAUAUCUC [A3G A21G A28G A45U U51A],0.4
14,UAGCAGGGGGCCACAGCAGAGGCGUUCGCGUCGCAGCCCCUAUCAGAUUCUGGUAGAUCUGCGAAUUCUGCUGUAUAUCUC [A3G A21G A28G G42A G55A A56G],0.08
15,UAGCAGGGGGCCACAGCAGAGGCGUUCGCGUCGCAGCCCCAGUCAGAUUCUGGUGGAUCUGAGAAUUCUGCUGUAUAUCUC [A3G A21G A28G U41A A56G C62A],0.38
16,UAGCAGGGGGCCACAGCAGAGGCGUUCGCGUCGCAGCCCCUGUCAGAUCCCGGCGAAUCUGCGAAUUCUGCUGUAUAUCUC [A3G A21G A28G U49C U51C U54C],0.64
17,UAGCAGGGGGCCACAGCAGAGGCGUUCACGUCGCGGCCCCUGUCAGACUCUGGUGAAUCUGCGAAUUCCGCUGUAUAUCUC [A3G A21G A35G U48C U69C],0.36

# — the RNAGym collection of RNA variant scans (doi:10.1093/nar/gkz1192)
